# The supplement of paper PMC4166925
# ± gives the standard deviation of the averaged measurements. In all, about 33,000 sequences were measured (“E-score (dimensionless, -0.5 to 0.5)”: median about -0.049, highest 2% from about 0.37 on). The list shows a part of the results.
# System: T1, PmTbr T-box DNA-binding domain (GST fusion)
# T1 sequence: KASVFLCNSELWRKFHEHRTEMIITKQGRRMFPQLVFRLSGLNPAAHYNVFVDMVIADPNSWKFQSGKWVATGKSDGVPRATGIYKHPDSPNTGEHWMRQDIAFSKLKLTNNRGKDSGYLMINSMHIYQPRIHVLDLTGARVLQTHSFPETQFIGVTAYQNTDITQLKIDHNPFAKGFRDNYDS
# Assay: PBM E-score of 8-mer (E-score (dimensionless, -0.5 to 0.5)); Tbr is Tbrain of the sea star Patiria miniata (Pm) or the sea urchin Strongylocentrotus purpuratus (Sp); higher = stronger binding preference; most listed sequences are background and not binding sites
# Details: the construct has about 5 more residues each side
# In short: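 Each ungapped 8-mer received an enrichment E-score from the Universal PBM Analysis Suite, averaged over duplicate arrays. The proteins were Tbr T-box DNA-binding domains, covering the whole T-box plus about five flanking residues, fused to GST and expressed in BL21 E. coli at 20 °C before glutathione affinity purification. Universal Agilent oligonucleotide arrays were made double-stranded by primer extension and incubated with 200 nM protein in PBS (pH 7.5). The arrays were then scanned and quantified, and every 8-mer was scored from probe intensities.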
row,Sequence,PBM E-score of 8-mer
1,AAACGTCG,-0.0373 ± 0.04
2,AATTATGT,-0.0893 ± 0.047
3,AGAGACGA,-0.111 ± 0.03
4,CCGTGAGC,0.071 ± 0.055
5,ACCGTTCC,0.0159 ± 0.023
6,CACCAGTA,0.132 ± 0.018
7,GCAGTGGC,0.058 ± 0.083
8,ATAGGGGC,-0.206 ± 0.017
9,TCAACCGA,-0.0435 ± 0.025
10,CAGTATGG,-0.291 ± 0.11
11,AAACTGGA,-0.0699 ± 0.034
12,CATTACAA,-0.23 ± 0.0056
13,AAACATAT,0.0457 ± 0.036
14,CGATCGTC,0.0191 ± 0.09
15,CCACAGTC,0.00792 ± 0.051
16,CAGCGTAA,-0.134 ± 0.04
17,AAGTGCCA,0.41 ± 0.0065
18,CGAAAAAC,0.0414 ± 0.053
19,GGATGCAA,-0.138 ± 0.03
20,GTTGTGGA,0.0762 ± 0.031
21,CCCGTCCC,-0.196 ± 0.026
22,CGAGCATA,0.0908 ± 0.038
23,GTAACTGA,-0.0334 ± 0.026
24,CAAGGCTC,-0.112 ± 0.03
25,AGGTAGGA,-0.171 ± 0.0049

row,Sequence,PBM E-score of 8-mer
1,GACCTAAA,-0.219 ± 0.037
2,GAAAGCAA,-0.152 ± 0.019
3,ACACGATA,0.0238 ± 0.047
4,TGGTCCAA,-0.272 ± 0.067
5,CTAGGGAG,-0.241 ± 0.018
6,CCGTAAGA,-0.234 ± 0.052
7,CTAGAACA,-0.0837 ± 0.0058
8,ACCTTAGC,0.252 ± 0.015
9,GGGCCCCC,-0.299 ± 0.014
10,AACCCCGA,-0.271 ± 0.03
11,TGAGCGAA,0.177 ± 0.0095
12,AGGGTCAT,-0.0736 ± 0.064
13,AGCGTACG,-0.087 ± 0.0085
14,GTGTAGTA,0.0477 ± 0.032
15,CTGGCTGA,-0.152 ± 0.059
16,AACGTCGT,-0.0814 ± 0.015
17,AGTCGCAA,0.147 ± 0.026
18,ATTAATAG,-0.0474 ± 0.045
19,AAGGCCCT,-0.238 ± 0.054
20,CCCACCAA,-0.112 ± 0.048
21,CTCAAAGC,-0.159 ± 0.022
22,AGTTGGAA,-0.0877 ± 0.14
23,AATCGGTA,-0.242 ± 0.027
24,GAATGTGA,0.305 ± 0.018
25,CATTCGCA,0.3497 ± 0.0027

row,Sequence,PBM E-score of 8-mer
1,TCACCTAA,0.383 ± 0.0065
2,GAGAGCTC,-0.177 ± 0.055
3,AATCGCGT,0.169 ± 0.035
4,CTCCACTA,-0.0227 ± 0.0055
5,AGATCCAG,-0.00199 ± 0.0063
6,ATCAGTTC,-0.0319 ± 0.0033
7,CGCCAGCA,0.083 ± 0.035
8,TATATGCA,-0.143 ± 0.024
9,GTAGTAGA,-0.22 ± 0.028
10,CAACAACA,0.226 ± 0.017
11,GCTGGCGA,0.112 ± 0.016
12,CAGTGGAC,-0.0736 ± 0.045
13,ATGCCTCA,-0.142 ± 0.028
14,CGGAGCAG,-0.0313 ± 0.049
15,AGTACGAA,-0.0114 ± 0.036
16,TAGTCGAA,-0.00998 ± 0.08
17,CGGCGAGA,0.031 ± 0.0096
18,ATGCCACC,0.266 ± 0.011
19,CTACATAC,-0.218 ± 0.057
20,ATTATAGC,-0.0536 ± 0.12
21,AATGCCAG,-0.228 ± 0.0099
22,CCTGCATC,-0.1993 ± 0.0017
23,ACGATACT,0.00195 ± 0.027
24,ATGCGTAG,-0.0957 ± 0.053
25,GTCGTTCA,0.19 ± 0.052

row,Sequence,PBM E-score of 8-mer
1,GATTTAAC,-0.133 ± 0.12
2,CTACGGCA,-0.132 ± 0.1
3,CCGGCCAA,-0.181 ± 0.0093
4,CTGTGTTA,0.158 ± 0.045
5,GGTTTCTA,-0.163 ± 0.024
6,ATTATCCA,-0.0843 ± 0.037
7,CTGTAGGC,-0.107 ± 0.05
8,TCTCATCA,0.157 ± 0.0043
9,ATTAATCG,-0.0134 ± 0.041
10,GGCTCTGA,-0.0831 ± 0.092
11,ATCACTTA,0.194 ± 0.042
12,GTGGGGCA,-0.0565 ± 0.067
13,CTACACTA,0.133 ± 0.0017
14,GGTGTAAA,0.418 ± 0.0026
15,CACGTTAC,0.262 ± 0.0086
16,CTTACTTA,-0.14 ± 0.026
17,ACAGGTCG,0.134 ± 0.0071
18,AACCAACC,-0.0194 ± 0.01
19,ATAGTTAC,-0.128 ± 0.069
20,AATTGTGG,0.097 ± 0.045
21,ATATACCC,-0.245 ± 0.015
22,CGCGAGCG,0.181 ± 0.056
23,ATGAGAAT,-0.081 ± 0.051
24,AAGACACT,0.0303 ± 0.11
25,AGGTCTGG,0.0461 ± 0.012

row,Sequence,PBM E-score of 8-mer
1,CTATACAG,-0.125 ± 0.016
2,CGCACGAG,0.0871 ± 0.03
3,AGTTCTTA,-0.0572 ± 0.018
4,CGGTGCGC,-0.0966 ± 0.03
5,CACTGCTC,0.115 ± 0.063
6,CACGTCTA,0.158 ± 0.028
7,GGTTATAC,0.0979 ± 0.001
8,AATCTTTC,-0.173 ± 0.04
9,GCACCCTA,0.133 ± 0.089
10,AATCCGTA,-0.157 ± 0.0019
11,AATCACTG,0.0986 ± 0.031
12,GTATGAAC,-0.118 ± 0.075
13,ATACACTG,-0.109 ± 0.095
14,ACACTCGG,0.229 ± 0.0048
15,GCTGGGAC,-0.0497 ± 0.038
16,GACATACC,-0.0855 ± 0.077
17,AGAAAGCT,0.0587 ± 0.053
18,GGGACTGA,-0.096 ± 0.00096
19,CTGGATGA,0.000185 ± 0.057
20,CCGCTAGA,0.0332 ± 0.029
21,AGAAGGTG,0.403 ± 0.0068
22,AGTAGGAG,-0.0167 ± 0.02
23,GGGGTAAA,-0.0507 ± 0.079
24,AACAGTCC,-0.0238 ± 0.078
25,AGATCGCA,0.23 ± 0.045

row,Sequence,PBM E-score of 8-mer
1,ACGGACCT,-0.224 ± 0.02
2,GGCGGGCA,-0.112 ± 0.086
3,AGGAAGCG,-0.085 ± 0.008
4,AGGCATCA,-0.186 ± 0.053
5,CGAAGAGA,-0.227 ± 0.028
6,ACGCCCAG,0.114 ± 0.025
7,CCGCACCC,0.221 ± 0.074
8,CGCCGACC,0.0208 ± 0.052
9,TCAGATAA,-0.0868 ± 0.048
10,AGTCCCCG,-0.176 ± 0.034
11,AATTGATC,0.104 ± 0.038
12,AGTGAGAT,0.287 ± 0.016
13,CATAAGGG,-0.145 ± 0.052
14,CCGCTGGC,-0.0268 ± 0.024
15,GAAACACC,0.297 ± 0.0084
16,GCCCACTA,-0.0431 ± 0.011
17,AGCCTATA,-0.0286 ± 0.017
18,AGGGTCGG,-0.000775 ± 0.089
19,CGGGTATA,-0.00855 ± 0.0038
20,AGAGCACT,-0.194 ± 0.044
21,CCCTTGCG,-0.0476 ± 0.039
22,ATGCGTAA,-0.00762 ± 0.04
23,TATACCCA,-0.211 ± 0.064
24,CGCAAGTC,0.139 ± 0.039
25,AGTGTATC,-0.0481 ± 0.042

row,Sequence,PBM E-score of 8-mer
1,AGAGGCGG,-0.0446 ± 0.11
2,ATGACCGA,0.0114 ± 0.018
3,CTACCCGA,-0.172 ± 0.018
4,AAAAGTTC,-0.00649 ± 0.083
5,ATTTTCTA,-0.195 ± 0.053
6,GGTACCAA,-0.0257 ± 0.097
7,AAACTCTG,-0.0274 ± 0.017
8,CGGGCACC,0.0329 ± 0.042
9,CGTACTAG,-0.204 ± 0.011
10,GGACCTTA,-0.162 ± 0.056
11,CCCTAGGC,-0.0806 ± 0.029
12,TAGTGAAA,0.144 ± 0.048
13,CACTGTCC,-0.142 ± 0.032
14,GTACTTTA,-0.0494 ± 0.044
15,CCCAGCCG,-0.11 ± 0.068
16,AACTGATA,0.19 ± 0.042
17,CTGCAACC,-0.0498 ± 0.05
18,CATTTGAA,-0.259 ± 0.014
19,CTCTCCGC,-0.0355 ± 0.036
20,CGTGCTGC,0.0759 ± 0.13
21,AATAGATG,-0.0568 ± 0.06
22,GTTAGTTA,0.104 ± 0.082
23,GCCGAGCC,0.0237 ± 0.029
24,ACACTCGA,0.313 ± 0.025
25,AGGTAGAA,0.0299 ± 0.024

row,Sequence,PBM E-score of 8-mer
1,AAAAGGGC,0.0277 ± 0.022
2,CGAGTTGA,0.171 ± 0.026
3,GCACGGAA,0.0176 ± 0.024
4,GCGCATCA,-0.0961 ± 0.041
5,GGGACTAA,-0.236 ± 0.08
6,AAAGGTGC,0.422 ± 0.015
7,AGCTGCTC,-0.075 ± 0.024
8,CAGCTTAC,-0.0417 ± 0.036
9,AAGTCCAA,-0.257 ± 0.052
10,ATCGTACC,-0.248 ± 0.06
11,GGTAGGCA,-0.0316 ± 0.006
12,CACGCAAA,0.136 ± 0.029
13,AATTTCCA,-0.166 ± 0.039
14,TACAGGGA,-0.149 ± 0.018
15,AAGCGACC,-0.19 ± 0.025
16,CGTCGGAC,0.0591 ± 0.071
17,GGGGGCTA,-0.13 ± 0.017
18,AGAACTGG,-0.0956 ± 0.021
19,AACGACCA,0.121 ± 0.039
20,AATGGCAT,-0.0195 ± 0.013
21,AATACTGA,-0.0363 ± 0.029
22,GGAGGACA,-0.222 ± 0.065
23,ATGCTTCA,-0.068 ± 0.099
24,GGACCAGA,-0.258 ± 0.049
25,TAAGACCA,-0.116 ± 0.019

row,Sequence,PBM E-score of 8-mer
1,ACATACGG,0.0556 ± 0.024
2,GGTCTAAA,0.067 ± 0.011
3,CTCCACCA,-0.218 ± 0.015
4,ACTTTCTA,0.00172 ± 0.072
5,GAAACAAC,-0.0103 ± 0.033
6,CGAGCTGC,0.14 ± 0.019
7,AATGAGCG,-0.238 ± 0.03
8,CGATATCC,0.026 ± 0.019
9,ACGGCGTC,0.0764 ± 0.011
10,CGTATAAC,-0.0754 ± 0.027
11,AATTGGTG,0.18 ± 0.035
12,GCGTCCAC,-0.0543 ± 0.06
13,GCTTAAAA,-0.264 ± 0.096
14,CATTTCCA,-0.0843 ± 0.069
15,ATACTGCC,-0.212 ± 0.0077
16,CCACCTTA,0.246 ± 0.036
17,CAGTGTCC,-0.0875 ± 0.02
18,GTCAGGAA,0.196 ± 0.0025
19,ACGCTGAT,-0.0269 ± 0.014
